The values below come from paper PMC3939360.

Chains of the proteins cited; added tags and fusions are not shown. Residues count along the entry.
UniProt B2RXS4, residues 20-1842: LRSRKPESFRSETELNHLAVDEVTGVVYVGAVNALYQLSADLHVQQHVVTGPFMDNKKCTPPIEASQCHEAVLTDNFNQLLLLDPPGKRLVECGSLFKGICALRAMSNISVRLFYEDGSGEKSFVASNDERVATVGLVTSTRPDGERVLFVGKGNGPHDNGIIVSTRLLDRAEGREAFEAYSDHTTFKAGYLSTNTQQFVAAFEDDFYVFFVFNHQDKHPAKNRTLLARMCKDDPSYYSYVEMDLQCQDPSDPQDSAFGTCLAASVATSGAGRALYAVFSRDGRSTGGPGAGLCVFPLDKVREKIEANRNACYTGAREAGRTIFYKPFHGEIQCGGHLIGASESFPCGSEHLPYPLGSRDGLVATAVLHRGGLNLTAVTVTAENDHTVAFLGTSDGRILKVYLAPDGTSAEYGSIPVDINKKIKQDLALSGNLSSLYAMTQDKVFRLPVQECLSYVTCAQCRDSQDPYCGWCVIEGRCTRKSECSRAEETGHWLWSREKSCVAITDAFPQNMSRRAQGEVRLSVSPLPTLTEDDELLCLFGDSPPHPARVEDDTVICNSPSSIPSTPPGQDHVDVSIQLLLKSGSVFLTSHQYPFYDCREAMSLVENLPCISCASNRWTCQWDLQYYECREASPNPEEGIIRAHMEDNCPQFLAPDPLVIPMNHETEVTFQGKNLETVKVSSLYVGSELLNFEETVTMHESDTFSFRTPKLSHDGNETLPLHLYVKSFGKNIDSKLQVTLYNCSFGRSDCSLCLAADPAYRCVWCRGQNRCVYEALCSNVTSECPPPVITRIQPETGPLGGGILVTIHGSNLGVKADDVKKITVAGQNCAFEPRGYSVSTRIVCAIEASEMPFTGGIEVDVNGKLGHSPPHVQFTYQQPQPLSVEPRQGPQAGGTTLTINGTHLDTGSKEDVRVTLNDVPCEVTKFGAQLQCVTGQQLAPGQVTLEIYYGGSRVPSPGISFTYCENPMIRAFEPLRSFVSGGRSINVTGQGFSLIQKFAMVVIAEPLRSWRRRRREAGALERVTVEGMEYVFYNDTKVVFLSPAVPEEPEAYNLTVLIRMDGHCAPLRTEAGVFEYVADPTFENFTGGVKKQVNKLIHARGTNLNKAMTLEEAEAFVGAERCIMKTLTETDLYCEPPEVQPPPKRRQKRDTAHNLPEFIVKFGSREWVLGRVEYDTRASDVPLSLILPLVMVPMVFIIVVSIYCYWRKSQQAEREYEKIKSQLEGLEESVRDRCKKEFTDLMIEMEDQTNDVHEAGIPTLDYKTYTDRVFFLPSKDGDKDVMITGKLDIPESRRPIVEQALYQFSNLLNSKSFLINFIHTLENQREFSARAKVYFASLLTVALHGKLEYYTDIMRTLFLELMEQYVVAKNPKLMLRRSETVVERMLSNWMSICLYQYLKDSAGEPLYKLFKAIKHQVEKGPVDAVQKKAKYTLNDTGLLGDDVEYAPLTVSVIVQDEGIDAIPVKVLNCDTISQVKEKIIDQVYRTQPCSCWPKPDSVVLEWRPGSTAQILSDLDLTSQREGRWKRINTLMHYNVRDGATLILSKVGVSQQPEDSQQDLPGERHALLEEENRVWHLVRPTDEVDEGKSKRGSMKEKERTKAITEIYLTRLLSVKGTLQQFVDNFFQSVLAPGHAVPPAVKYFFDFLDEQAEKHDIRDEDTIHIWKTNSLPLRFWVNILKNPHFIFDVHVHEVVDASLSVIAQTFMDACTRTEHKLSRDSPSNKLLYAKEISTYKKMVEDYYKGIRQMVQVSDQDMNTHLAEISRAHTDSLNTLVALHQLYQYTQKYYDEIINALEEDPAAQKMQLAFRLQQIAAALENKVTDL

No constants are given. Whether binding was seen depends on the method and setting. In cells and extracts the contact can be indirect. Some entries that bind do so weakly or less than the wild type. Where a sequence is shown, tags or fusion partners need not be part of it.

One assay addresses T1, FLAG-tagged Rnd3 (UniProt P61587).
T1 sequence: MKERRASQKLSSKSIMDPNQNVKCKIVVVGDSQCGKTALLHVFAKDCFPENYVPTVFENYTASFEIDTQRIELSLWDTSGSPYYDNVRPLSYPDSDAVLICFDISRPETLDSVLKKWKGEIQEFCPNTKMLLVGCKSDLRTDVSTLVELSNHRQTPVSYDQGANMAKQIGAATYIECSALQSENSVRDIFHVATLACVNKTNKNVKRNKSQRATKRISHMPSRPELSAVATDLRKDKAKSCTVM
Kind of assay: co-IP; P19 cells co-transfected with FLAG-Rnd and VSV-Plexin plasmids, lysed 24 h later in RIPA-like buffer (50 mM Tris-HCl pH 8, 150 mM NaCl, 0.5% NP40 Igepal, 10% glycerol); lysate incubated overnight at 4 °C with anti-FLAG M2 agarose beads; immunoblot with anti-VSV and anti-FLAG. On the technique in general: Immunoblotting shows a protein as a band on a membrane.

Another assay concerns the target T2, FLAG-Rnd2 (UniProt P52198).
T2 sequence: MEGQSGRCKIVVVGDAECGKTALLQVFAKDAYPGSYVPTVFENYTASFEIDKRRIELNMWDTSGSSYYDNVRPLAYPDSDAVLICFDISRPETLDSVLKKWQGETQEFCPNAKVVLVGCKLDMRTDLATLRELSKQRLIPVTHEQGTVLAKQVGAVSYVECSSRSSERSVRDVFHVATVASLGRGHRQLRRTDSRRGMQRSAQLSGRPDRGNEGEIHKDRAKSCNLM
The description is as above.

As to “VSV-tagged Plexin B2 (from UniProt B2RXS4 20-1842) (receptor)”, the binding entry with FLAG-tagged Rnd3 and with FLAG-Rnd2 was “binds” throughout.
